Test results published in the supplement of paper PMC11417369.
± gives the standard deviation of the averaged measurements. The list shows a part of the results.

The sequences below were run on PfAP2-EXP AP2 domain (GST-tagged) (assay: gcPBM binding intensity (ln(normalized median fluorescence intensity)); higher = stronger DNA binding).
Procedure, shortened: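 For binding intensity, the highest Masliner-normalised natural-log median intensity across replicate spots of either probe orientation was taken. Protein bound to the array was stained with Alexa488 anti-GST antibody and scanned at 488 nm. The protein, GST-tagged P. falciparum DNA-binding domains from E. coli at about 25 μg on average, had been applied for 1 h to an Agilent 4 × 180k array of primer-extended double-stranded 36-bp intergenic genomic probes and negative controls.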
With “AAAAAATAAATAAATACACACAAATATATATATATA [CACACA_site2543]” the “gcPBM binding intensity (ln)” value was 10.2 ± 0.071. In the case of “TAATATGTATATAAAAGTACAGACGATTATAATTAT [XGTACX_site173]”, the “gcPBM binding intensity (ln)” value is reported as 8.71 ± 0.38. With “AAGAAAAAAAAAATTACACACTGCGCAGATACACAA [CACACA_site1289]” the “gcPBM binding intensity (ln)” value was 8.85 ± 0.38. With “TGGTAATCCACATACACACACACATACACATATATA [CACACA_site2727]” the “gcPBM binding intensity (ln)” value was 8.74 ± 0.48. For “ATATATATATGTAAGAGTACACAAAAATATGTATGT [XGTACX_site4335]”, the “gcPBM binding intensity (ln)” value was 9.62 ± 0.13. With “TACTATTTAAAATATGAACACACATTATTTGTTTTA [CACACA_site8870]” the “gcPBM binding intensity (ln)” value was 8.13 ± 0.3. “CACAAAAATAAACACACACACATATATATTTATTAT [CACACA_site5923]” was tested, and the “gcPBM binding intensity (ln)” value was 8.4 ± 0.36. “GGAAACTAAAGGAATAAAACTATGGAAATTAATTAA [CACACA_negctrl_site1647]” was tested, and the “gcPBM binding intensity (ln)” value was 8.62 ± 0.46. “TAAATTAAAAGACACACACACAAAAAAAAAAAAAAA [CACACA_site7131]” was tested, and the “gcPBM binding intensity (ln)” value was 8.24 ± 0.57. “ATTCAAAATTATAGGTGTACGTATTTTTTTTTTTTT [XGTACX_site7177]” was tested, and the “gcPBM binding intensity (ln)” value was 8.42 ± 0.34. In the case of “TAAATTTATAAATCACGTACATATTTATTTATATTT [XGTACX_site4532]”, the “gcPBM binding intensity (ln)” value is reported as 8.38 ± 0.33. “AGATGATATAATGGCACACAAATATTTTATTATAAA [CACACA_site3553]” was tested, and the “gcPBM binding intensity (ln)” value was 8.45 ± 0.38. ATAATTTCATAATACGTGCACATAATATATAAAAAA was tested, and the “gcPBM binding intensity (ln)” value was 8.87 ± 0.014. With “AATAAAAATATATCCACACACATATATATATATGTA [CACACA_site576]” the “gcPBM binding intensity (ln)” value was 8.31 ± 0.34. For “ATATGAATATATATATGTACTAATTAGTAGTTTACG [XGTACX_site6273]”, the “gcPBM binding intensity (ln)” value was 8.84 ± 0.4. With “GAAGATATGTAAAATTGTACATATTATTTTATTTTA [XGTACX_site5302]” the “gcPBM binding intensity (ln)” value was 8.1 ± 0.34. With “AGAAATTTACAAATACGTACACACATATATATATAT [XGTACX_site3141]” the “gcPBM binding intensity (ln)” value was 10.1 ± 0.23. For TCATAACAACTTTGTGTGCACATAAAACATGTATAT, the “gcPBM binding intensity (ln)” value was 8.94 ± 0.3. With “TTTTTTTTTTCATTCACACAAAAAAAAAAAATTTAT [CACACA_site5921]” the “gcPBM binding intensity (ln)” value was 8.21 ± 0.35. With “TATAAGACATGATATATACACACCTTGTTTTAATTT [CACACA_site2266]” the “gcPBM binding intensity (ln)” value was 8.27 ± 0.27. “TTTTACACTTTTTTTTGTACACACTAAAAAGATTAA [XGTACX_site8407]” was tested, and the “gcPBM binding intensity (ln)” value was 8.54 ± 0.28. With “CAAATCATATATAGCACACAAATTCTTTATTATTAT [CACACA_site2815]” the “gcPBM binding intensity (ln)” value was 8.34 ± 0.18. With “AAAGGTTCATAAAAATGTACATAATTATTTACATGT [XGTACX_site2722]” the “gcPBM binding intensity (ln)” value was 8.43 ± 0.39. With “CTGATCCACATTTATACACACCTCGGTTTGTAGAGA [CACACA_site4393]” the “gcPBM binding intensity (ln)” value was 8.47 ± 0.47. “AAAATATATAATATTTGTACATATTGATGGCAACAG [XGTACX_site6454]” was tested, and the “gcPBM binding intensity (ln)” value was 8.56 ± 0.13.
